Laboratory results as given in article PMC4336329 (PLoS ONE, 2015).
The campaign covered roughly 310,000 compounds. About 2,200 (0.71%) showed an effect of 50% or more. The effect is printed as a negative number. Some of the results follow.

biological target: human ether-à-go-go-related gene (hERG) potassium channel (human, UniProt Q12809); test: primary screen, population patch clamp on CHO cells stably expressing hERG
Sequence (Q12809 whole entry, looked up): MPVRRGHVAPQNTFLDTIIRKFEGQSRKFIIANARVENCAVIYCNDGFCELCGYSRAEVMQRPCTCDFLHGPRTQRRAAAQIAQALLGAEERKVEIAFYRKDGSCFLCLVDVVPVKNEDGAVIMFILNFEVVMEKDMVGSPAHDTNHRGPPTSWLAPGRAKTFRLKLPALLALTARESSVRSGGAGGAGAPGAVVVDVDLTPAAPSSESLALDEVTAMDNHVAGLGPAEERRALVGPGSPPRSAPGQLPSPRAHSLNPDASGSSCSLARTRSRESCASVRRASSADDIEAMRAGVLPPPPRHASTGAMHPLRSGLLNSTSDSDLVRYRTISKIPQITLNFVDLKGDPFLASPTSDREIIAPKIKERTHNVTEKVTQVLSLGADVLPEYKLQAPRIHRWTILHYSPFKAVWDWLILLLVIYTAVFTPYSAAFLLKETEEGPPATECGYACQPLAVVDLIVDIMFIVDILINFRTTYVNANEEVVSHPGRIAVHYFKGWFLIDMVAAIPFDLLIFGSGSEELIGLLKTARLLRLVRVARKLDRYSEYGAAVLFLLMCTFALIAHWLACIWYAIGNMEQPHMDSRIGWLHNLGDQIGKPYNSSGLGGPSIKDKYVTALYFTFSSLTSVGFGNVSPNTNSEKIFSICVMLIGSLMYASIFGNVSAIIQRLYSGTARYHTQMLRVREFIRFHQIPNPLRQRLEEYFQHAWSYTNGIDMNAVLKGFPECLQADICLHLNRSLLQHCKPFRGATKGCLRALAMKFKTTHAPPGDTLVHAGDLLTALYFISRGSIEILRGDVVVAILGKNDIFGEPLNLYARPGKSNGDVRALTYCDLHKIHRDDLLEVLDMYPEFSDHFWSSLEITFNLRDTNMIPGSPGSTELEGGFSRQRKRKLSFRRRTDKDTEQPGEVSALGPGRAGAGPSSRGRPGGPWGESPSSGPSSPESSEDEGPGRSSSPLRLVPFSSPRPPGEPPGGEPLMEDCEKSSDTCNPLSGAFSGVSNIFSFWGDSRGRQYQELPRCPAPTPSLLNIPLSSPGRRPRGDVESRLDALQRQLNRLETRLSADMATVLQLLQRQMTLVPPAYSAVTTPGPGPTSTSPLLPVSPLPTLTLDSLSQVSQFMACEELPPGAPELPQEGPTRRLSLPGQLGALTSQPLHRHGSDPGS

In order of rising “hERG current change (%, negative = inhibition) at 1uM” value:
1. OCC1(Cc2ccccc2)CCN(CCCC2CCCC2)CC1  -79%
2. CN1C2CCC1CC(N(CCc1ccccc1)C(=O)c1ccc(Cl)cc1)C2.Cl (stereo not shown)  -78.8%
3. O=C(CN1CCCCC1)NCC(=O)Nc1ccc(Br)cc1C(=O)c1ccccc1  -77.2%
4. CC(C)(C)C(=O)N1CCN(c2ccc(Cl)cc2[N+](=O)[O-])CC1  -13.8%
5. CCn1c(COc2ccccc2C)nnc1SCC(=O)N1CCN(c2ccccc2)CC1  -11.3%
6. COC(=O)c1sc(S(=O)(=O)N2CCC(C(N)=O)CC2)c(C(=O)OC)c1C  -10.8%
7. O=C(CCNC(=O)c1ccco1)NCc1ccccc1  -3.84%
8. Cc1cccc(OCC(=O)N(Cc2ccc(F)cc2)C2CCS(=O)(=O)C2)c1C (stereo not shown)  -3.51%
9. CN1CCN(C(=O)c2ccc(Cl)c(S(=O)(=O)N3CCCCCC3)c2)CC1  -3.36%
10. CC(NC(=O)C1CCN(C(=O)Nc2ccccc2)CC1)c1ccc(Cl)cc1 (stereo not shown)  -2.16%
11. CCc1ccc(OCC(=O)NNC(=O)Cc2ccc(S(=O)(=O)N3CCOCC3)s2)cc1  -2.08%
12. COCCNC(=O)CSc1nc2ccccc2c(=O)n1CC1CCCO1 (stereo not shown)  -1.98%
13. N/C(=N\OC(=O)c1cccc2ccccc12)c1ccc(Br)cc1  -1.55%
14. O=C(CC(=O)c1ccccc1)Nc1ccc2c(c1)OCCO2  -1.19%
15. COc1ccc(O)c(-c2nc(N)nc(N)n2)c1  -0.656%
16. O=C(O)C1CCCCN1S(=O)(=O)c1ccc2ccccc2c1 (stereo not shown)  -0.446%
17. Cc1ccc(P(=O)(OCCN2CCOCC2)C(C)(C)C)o1 (stereo not shown)  -0.356%
18. COc1ccc(C)cc1S(=O)(=O)N(C)CC(=O)Nc1ccc2c(c1)OCO2  1.3%
19. COc1ccc(OCC(=O)Nc2c3c(nn2-c2ccc(OC)cc2)CS(=O)(=O)C3)cc1  1.4%
20. O=C(Nc1ccc(Oc2ccccc2)nc1)C1CCN(Cc2cccc(F)c2)CC1  2.74%
21. Cc1ccc(C)c(NNC(N)=S)c1  2.99%
22. CC1=C(C#N)C(/C=N/OCc2ccc(F)cc2Cl)CC(=O)N1 (stereo not shown)  3.06%
23. CC1CCCN(C(=O)CCc2ccccc2)C1 (stereo not shown)  3.25%
24. Cc1cc(NCc2ccc(F)cc2Cl)n2nnnc2n1  3.39%
25. CCC(C)(C)NC(=O)C(OC(=O)c1cc2sccc2n1C)c1ccc(OC)cc1 (stereo not shown)  3.91%
26. O=C(Nc1ccc2c(c1)OCO2)C1CC(=O)N(CCc2ccccc2)C1 (stereo not shown)  4.44%
27. CCCOc1nc(SCCC)nc2c1cnn2-c1ccccc1  4.47%
28. CCC(C)NC(=O)/C(=C/c1ccco1)c1ccccc1 (stereo not shown)  4.99%
29. O=c1[nH]c(SCc2ccccc2Cl)nc2c1CCC2  5.03%
30. C=CCS(=O)(=O)N1CCCC(Cc2ccccc2C)(C(=O)OCC)C1 (stereo not shown)  6.26%
31. COc1cc2cc(CN(Cc3cccnc3)C(=O)Nc3ccccc3)c(=O)[nH]c2cc1OC  6.43%
32. O=C(Nc1ccccn1)Nc1cccs1  6.52%
33. O=[N+]([O-])c1ccc2nc(C3CCCCC3)[nH]c2c1  6.81%
34. CN(C)c1ccc(C(=O)N2CC(=O)N(CCc3ccccc3)C(=O)C2)cc1  6.92%
35. CCCCn1c(N)c(N(Cc2ccccc2OC)C(=O)c2cc(=O)[nH]c3ccccc23)c(=O)[nH]c1=O  7.99%
36. COc1ccc(Nc2nc3[nH]c(=O)cc(O)c3s2)cc1  8.1%
37. COc1ccc(NC(=O)COC(C)=O)cc1OC  8.18%
38. COC(=O)c1nn(-c2ccc(Oc3ccccc3)cc2)c(=O)cc1O  8.62%
39. CC(C)C(=O)c1cc2c(cc1NC(=O)Nc1cccc3ccccc13)OCCO2  9.04%
40. N#Cc1cc2c(nc1SCC(=O)Nc1sc3c(c1C#N)CCC3)CCC2  9.46%
41. Cc1cc(NS(=O)(=O)c2ccc(NC(=O)CCN3C(=O)c4ccccc4C3=O)cc2)no1  9.94%
42. CC1Cc2ccccc2N1C(=O)C1CC(=O)N(c2ccccc2)C1 (stereo not shown)  10.1%
43. COC(=O)COc1ccc(S(=O)(=O)NCCC2=CCCCC2)cc1Cl  11.4%
44. C[C@@H]1CC=C[C@H]2[C@H]1C(=O)N(Cc1ccccc1)[C@H]2c1ccc(/C=C/c2ccccc2)cc1F  11.8%
45. Cc1ccc(NC(=O)C(NCc2ccccn2)c2ccccc2)cc1 (stereo not shown)  12.2%
46. COc1ccc(/C=N/n2c(-c3ccco3)nc3ccccc3c2=O)cc1  12.4%
47. NC1=NC(=Nc2cccc(S(N)(=O)=O)c2)c2ccccc21  12.6%
48. O=C(NC1CCSc2ccccc21)c1cccc(Cl)c1 (stereo not shown)  12.6%
49. CC[N+](CC)(CC)CCC(O)(c1ccccc1)C1CCCCC1.[Cl-] (stereo not shown)  12.8%
50. NS(=O)(=O)c1ccc(NC(=S)Nc2nn(Cc3ccc(Cl)cc3Cl)cc2Cl)cc1  12.8%
51. COC(=O)Cn1ccc(N(C)C)c(C#N)c1=O  13.8%
52. CC(=O)NS(=O)(=O)c1ccc(NC(=S)NC(=O)CC(C)C)cc1  14.1%
53. COc1ccc(-n2nc(C(=O)NCC(=O)N3CCOCC3)c3ccccc3c2=O)cc1Cl  14.3%
54. CC(=O)Nc1cccc(OCC(=O)/C=C2\N(C)c3ccccc3C2(C)C)c1  14.5%
55. COc1ccccc1NC(=O)CSc1nnc(C2CCCCC2)n1C  14.7%
56. COCCNC(=O)Cn1c(=O)n(C)c2ccccc21  15%
57. Cc1ccc(Cl)cc1NC(=O)Cn1c(C)csc1=O  15.1%
58. C[N+]12CCCCC1C(COC(=O)c1ccc3c(c1)OCO3)CCC2.[I-] (stereo not shown)  15.4%
